# The full ranking holds about 33,000 sequences; the median of “E-score (-0.5 to 0.5)” is about -0.017, and the highest 2% start at about 0.3. Some of the results follow.
# Target: T1, Sut1 (UniProt P53032)
# T1 sequence: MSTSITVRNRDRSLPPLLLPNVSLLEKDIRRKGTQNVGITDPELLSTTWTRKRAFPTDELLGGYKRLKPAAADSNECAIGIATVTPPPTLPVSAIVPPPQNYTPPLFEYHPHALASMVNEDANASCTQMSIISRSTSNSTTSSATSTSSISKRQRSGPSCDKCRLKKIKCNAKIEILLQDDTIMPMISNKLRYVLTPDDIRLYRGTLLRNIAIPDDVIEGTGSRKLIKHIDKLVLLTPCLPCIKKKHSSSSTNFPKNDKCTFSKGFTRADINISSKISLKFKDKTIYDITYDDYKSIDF
# Experiment: PBM E-score (8-mer binding enrichment) (E-score (-0.5 to 0.5)); higher = stronger / more preferred TF binding; most listed sequences are background and not binding sites
# Conditions: protein concentration: 200 nM; construct: GST-full length
# Experimental: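 Universal 'all 10-mer' protein binding microarrays (Agilent AMADID 015681) probed with GST-tagged S. cerevisiae TFs (full-length or DBD) made by in vitro transcription/translation (PURExpress), about 100-200 nM. Bound TF was detected with fluorescent anti-GST. Each ungapped 8-mer (which stands for itself and its reverse complement) is scored by the PBM enrichment score (E-score), a modified Wilcoxon-Mann-Whitney statistic from -0.5 to +0.5, computed with the Universal PBM Analysis Suite. Scale: above 0.35 generally sequence-specific binding.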
row,Sequence,PBM E-score
1,GCAACACA,-0.047
2,AACCATGT,0.0208
3,CCCAAGGA,-0.146
4,CTCGCCAC,-0.186
5,CATTTAAC,0.111
6,ATTCACCG,0.202
7,GTATCGAC,-0.0452
8,CCGTCAAG,0.0083
9,CAACGGGG,-0.0181
10,ATCACCAT,0.0974
11,AACAATAA,0.192
12,ATCACATC,0.0216
13,AATCTGTA,0.0605
14,GTCCTACA,-0.0165
15,AGCATAAG,-0.0071
16,GGACGTTA,-0.036
17,ACTTGATC,0.137
18,AGATCTGC,-0.0941
19,AGACTGCT,-0.192
20,GCGTTCCC,-0.127
21,GGTATCCA,-0.055
22,AAACATCT,0.132
23,AGTAATCG,0.131
24,ACATCCTG,0.111

row,Sequence,PBM E-score
1,GTTGGTCA,0.0837
2,AACTAGCA,-0.0313
3,AGCATTGC,-0.0883
4,CGACCGGC,-0.195
5,ACGTTTCA,0.051
6,CGGCAAAG,0.0412
7,GGGTACAA,0.0309
8,ACCATCAC,0.055
9,GCGAACTA,0.0496
10,AATAGGCG,0.106
11,GACTACCC,-0.104
12,AAAATCCA,0.202
13,CGCCTACC,-0.167
14,AACTCTGT,-0.0734
15,AGCCTGTA,0.0203
16,GCGTAAGA,0.13
17,AGACGTGC,-0.0773
18,AACGGAGG,-0.0314
19,ATCCCAAG,0.0602
20,GGGCGCTA,-0.166
21,ACCCACAC,-0.0901
22,TGTCTAAA,0.153
23,ATCTTATC,0.154
24,CGTCCAAG,-0.0933

row,Sequence,PBM E-score
1,AATCGTTC,0.0128
2,ATCTGAAG,-0.0527
3,AAGTACAG,-0.147
4,AGTTGATG,0.0114
5,CCTGGGTC,-0.228
6,CGCAGCAA,-0.199
7,AAATTGCT,0.0866
8,GACGCAGA,-0.0808
9,GGAAGGAC,-0.0551
10,GAGTTAAA,0.13
11,GAGGGCGC,-0.214
12,CATAGATG,-0.116
13,GGAGAGCA,-0.125
14,CAGTAATA,0.261
15,CGAGCGGA,0.0878
16,CAATGCAC,0.00379
17,GGGACTAC,-0.162
18,CTGATTAA,0.209
19,CTTTTCAC,0.0905
20,AATATGCC,-0.0767
21,CTTGGTAC,-0.152
22,AGAGGCTC,-0.103
23,CATTAATG,-0.00733
24,CCACAGTA,-0.146

row,Sequence,PBM E-score
1,ACGGGCAG,-0.0311
2,GAGATTAA,0.2
3,ATTTGTTA,0.137
4,ATGAGTTC,0.0395
5,AGACTATG,0.0162
6,ATAACCGG,0.0855
7,GTATTATA,0.267
8,ATAATTGG,0.0406
9,ATATGAAA,0.118
10,AATATAGT,0.244
11,CTGCAGTC,-0.164
12,TCCGACCA,0.187
13,TATCAGAA,0.202
14,AGAGTAGC,-0.247
15,AAATTACC,0.105
16,GAGAAAAC,0.0743
17,AAAAAAAT,0.271
18,GAAAACGA,0.193
19,CTCAGAGC,-0.294
20,TGGTAACA,0.0878
21,CGCGCCTA,0.0294
22,GAGCAGAA,-0.139

# Reference: the supplement of paper PMC3334620
